For one assay, the system named is HSkMC. Briefly: cytotoxicity call (relative viability < 0.9). Conditions: 10 µM.
The subject of another assay is HepG2. In words: cytotoxicity call (relative viability < 0.9). The conditions noted are these: 10 µM.
A further assay has as its system S. aureus RN4220. Briefly: growth inhibition call (relative growth <= 0.2). The conditions noted are these: 50 µM.

The list shows a part of the results.

Regarding `Cn1cnc(S(=O)(=O)N[C@@H]2C=C[C@H](CC(=O)N3CCN(c4ccccc4)CC3)O[C@@H]2CO)c1`, the cytotoxicity call in the assay on HSkMC and in the assay on HepG2 was “inactive” each time. For the same compound, in the assay with S. aureus RN4220, the growth inhibition call is “inactive”.
For the compound `COCC(=O)N1C[C@@H]2OCCN(c3ncccn3)[C@H]2C1`, the cytotoxicity call with HSkMC and in the assay on HepG2 was “inactive” in each case. Further, in the assay on S. aureus RN4220, the growth inhibition call is “inactive”.
`N=C(NO)c1ccccc1N`: the cytotoxicity call in the assay on HSkMC and with HepG2 was “inactive” each time. The growth inhibition call with S. aureus RN4220 was “inactive”.
As to `Cc1noc(C)c1S(=O)(=O)N(C)C[C@H]1Oc2ccc(NC(=O)c3ccncc3)cc2CC(=O)N([C@H](C)CO)C[C@H]1C`, the cytotoxicity call in the assay on HSkMC and in the assay with HepG2 was “inactive” throughout. For the same compound, the growth inhibition call in the assay with S. aureus RN4220 was “inactive”.
Consider `CCS(=O)(=O)Nc1ccc2c(c1)C(=O)N(C)[C@@H]1CC[C@H](CC(=O)NCc3ccc(OC)cc3)O[C@@H]1CO2`, for which the cytotoxicity call with HSkMC and with HepG2 was “inactive” in each case. For the same compound, the growth inhibition call in the assay on S. aureus RN4220 is “inactive”.
For the compound `COc1ccc(-c2cnc3c(c2)C(=O)N([C@H](C)CO)C[C@H](C)[C@@H](CN(C)C(=O)C2CCOCC2)O3)cc1`, the cytotoxicity call with HSkMC and in the assay on HepG2 was “inactive” throughout. Moreover, the growth inhibition call in the assay on S. aureus RN4220 was “inactive”.
In the case of `COc1ccc(S(=O)(=O)Nc2cccc3c2O[C@@H](CN(C)S(C)(=O)=O)[C@@H](C)CN([C@@H](C)CO)C3=O)cc1`, the cytotoxicity call in the assay with HSkMC and in the assay on HepG2 was “inactive” each time. Moreover, in the assay with S. aureus RN4220, the growth inhibition call is “inactive”.
`C[C@H]1CN([C@@H](C)CO)C(=O)c2cccc(NS(=O)(=O)c3ccc(F)cc3)c2O[C@@H]1CN(C)Cc1ccc(Cl)c(Cl)c1`: the cytotoxicity call with HSkMC and in the assay with HepG2 was “inactive” each time. In the assay on S. aureus RN4220, the growth inhibition call was “inactive”.
Regarding `O=C(NC(CO)C(O)c1ccc([N+](=O)[O-])cc1)C(Cl)Cl` (stereo unspecified), the cytotoxicity call in the assay on HSkMC is “inactive”. In the assay on HepG2, the cytotoxicity call is “active”. For the same compound, the growth inhibition call in the assay on S. aureus RN4220 is “active”.
Turning to `O=C(C[C@H]1C=C[C@H](NC(=O)CN2CCOCC2)[C@H](CO)O1)NCCc1ccncc1`, the cytotoxicity call in the assay on HSkMC and in the assay on HepG2 was “inactive” in each case. In addition, the growth inhibition call in the assay on S. aureus RN4220 was “inactive”.
As for `NC(CCC(=O)NC(CS)C(=O)NCC(=O)O)C(=O)O` (stereo unspecified), the cytotoxicity call with HSkMC and in the assay with HepG2 was “inactive” throughout. Further, the growth inhibition call with S. aureus RN4220 is “inactive”.
As to `CO[C@@H]1CN(C)C(=O)c2cc(NC(=O)Nc3ccccc3F)ccc2OC[C@@H](C)N(Cc2ccccc2F)C[C@H]1C`, the cytotoxicity call with HSkMC and with HepG2 was “inactive” in each case. Besides, the growth inhibition call in the assay with S. aureus RN4220 is “inactive”.
In the case of `COc1ccccc1-c1ccc2c(c1)O[C@H](CN(C)CC1CCOCC1)[C@@H](C)CN([C@@H](C)CO)S2(=O)=O`, the cytotoxicity call in the assay with HSkMC and in the assay on HepG2 was “inactive” each time. In addition, the growth inhibition call in the assay on S. aureus RN4220 is “inactive”.
On to `C[C@@H]1CCCCO[C@H](CN(C)Cc2ccc(C(=O)O)cc2)[C@@H](C)CN([C@H](C)CO)C(=O)c2cc(NC(=O)NC3CCCCC3)ccc2O1`, for which the cytotoxicity call in the assay on HSkMC and in the assay on HepG2 was “inactive” each time. Also, the growth inhibition call in the assay with S. aureus RN4220 was “inactive”.
For the compound `Cn1cnc(S(=O)(=O)N2C[C@@H](O)COC[C@@H]3O[C@@H](CC(=O)N4CCN(c5ccccc5)CC4)CC[C@H]32)c1`, the cytotoxicity call in the assay with HSkMC and in the assay on HepG2 was “inactive” in each case. Moreover, the growth inhibition call in the assay with S. aureus RN4220 is “inactive”.
Turning to `NCc1ccccc1CN1CCOCC1`, the cytotoxicity call with HSkMC and in the assay with HepG2 was “inactive” throughout. The growth inhibition call with S. aureus RN4220 is “inactive”.
`O=C(N[C@H]1CC[C@@H](CC(=O)N2CCOCC2)O[C@H]1CO)c1ccccn1`: the cytotoxicity call in the assay with HSkMC and in the assay with HepG2 was “inactive” throughout. Besides, the growth inhibition call with S. aureus RN4220 was “inactive”.
As for `CS(=O)(=O)N(CCC#N)Cc1ccco1`, the cytotoxicity call in the assay on HSkMC and in the assay on HepG2 was “inactive” throughout. In addition, the growth inhibition call in the assay on S. aureus RN4220 was “inactive”.
`COc1ccc2c3c(n(c2c1)C)[C@@H](CO)N(C[C@]13CCN(CC1)C(=O)c1ccncc1)C(=O)C1CCOCC1`: the cytotoxicity call with HSkMC and in the assay on HepG2 was “inactive” each time. In addition, in the assay with S. aureus RN4220, the growth inhibition call is “inactive”.
Regarding `COc1ccc(S(=O)(=O)N(C)C[C@H]2OCc3cnnn3CCCC(=O)N([C@H](C)CO)C[C@@H]2C)cc1`, the cytotoxicity call in the assay on HSkMC and in the assay on HepG2 was “inactive” in each case. For the same compound, the growth inhibition call in the assay on S. aureus RN4220 was “inactive”.
For the compound `C[C@H]1CCCCO[C@H](CN(C)C(=O)c2ccncc2)[C@@H](C)CN([C@@H](C)CO)C(=O)c2cc(NS(C)(=O)=O)ccc2O1`, the cytotoxicity call in the assay with HSkMC and with HepG2 was “inactive” each time. Further, the growth inhibition call in the assay on S. aureus RN4220 is “inactive”.
As to `C[C@@H]1CN([C@H](C)CO)C(=O)Cc2cc(NC(=O)Nc3cccc4ccccc34)ccc2O[C@H]1CN(C)S(=O)(=O)c1ccc(Cl)cc1`, the cytotoxicity call in the assay on HSkMC and with HepG2 was “inactive” in each case. For the same compound, the growth inhibition call with S. aureus RN4220 is “inactive”.
As to `C[C@@H]1CN([C@H](C)CO)C(=O)c2cc(NC(=O)Nc3ccc4c(c3)OCO4)ccc2O[C@@H](C)CCCCO[C@@H]1CN(C)S(=O)(=O)c1ccccc1`, the cytotoxicity call in the assay with HSkMC and with HepG2 was “inactive” in each case. Moreover, the growth inhibition call with S. aureus RN4220 is “inactive”.
For `O=C(OC[C@H]1O[C@@H](OC(=O)c2cc(O)c(O)c(O)c2)[C@H](O)[C@@H](OC(=O)c2cc(O)c(O)c(O)c2)[C@@H]1O)c1cc(O)c(O)c(O)c1`, in the assay on HSkMC, the cytotoxicity call is “inactive”. The cytotoxicity call with HepG2 is “active”. Also, the growth inhibition call with S. aureus RN4220 is “inactive”.
In the case of `COc1cccc(NC(=O)C[C@@H]2CC[C@H]3[C@@H](COc4ccc(NC(=O)C5CCOCC5)cc4C(=O)N3C)O2)c1`, the cytotoxicity call with HSkMC and in the assay with HepG2 was “inactive” throughout. For the same compound, in the assay with S. aureus RN4220, the growth inhibition call was “inactive”.
Take `Cc1noc(C)c1S(=O)(=O)Nc1cccc2c1O[C@@H](CN(C)Cc1ccc(C(=O)O)cc1)[C@@H](C)CN([C@H](C)CO)C2=O`: the cytotoxicity call in the assay on HSkMC and with HepG2 was “inactive” each time. Also, the growth inhibition call with S. aureus RN4220 is “inactive”.
On to `CN(C)CCCNC(=O)[C@@]1(C)c2ccccc2C(=O)N(Cc2cc(F)cc(C(F)(F)F)c2)[C@H]1c1ccc(CO)cc1`, for which the cytotoxicity call in the assay on HSkMC (human skeletal muscle cells) and with HepG2 was “inactive” throughout. Further, the growth inhibition call in the assay with S. aureus RN4220 was “inactive”.

The values are drawn from the antibiotic and cytotoxicity screens of Wong et al. (2023).
